Data taken from PubChem BioAssay AID2101 (National Center for Advancing Translational Sciences (NCATS), 2009).
Among all 330,000 compounds or so, about 300 (0.091%) were called active. Inconclusive means that the source gave no clear call. Such entries were picked first, then a sample of the others. Calls follow the shape of the dose curve; as a rule, active = well fitted inhibition curve with a large enough effect; inconclusive = small, poorly fitted or top-dose-only effect, or effect the other way, or another doubt; inactive = no such curve, though single readings can be large or run the other way. No potency is given beside an inconclusive call; the fits are too rough.

molecular target: Lysosomal acid glucosylceramidase (Homo sapiens) (UniProt P04062); test: qHTS Assay for Inhibitors and Activators of N370S glucocerebrosidase as a Potential Chaperone Treatment of Gaucher Disease; details: N370S GC spleen homogenate, 4MU-glucoside fluorescence; activity change, negative = inhibition: at 59.4 µM (top of the series) unless noted;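 as to activity change, negative = inhibition: 0% = full enzyme activity and -100% = no enzyme basal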
Potency is read from the fitted curve at half-maximal effect.

With `CCCCN(CC)CCCNC(=O)c1cn(CC(C)C)c(=O)c2c1c1ccccc1n2C` as the compound, how does the Potency read?
Its Potency is inconclusive [activator, single point].

For `COc1ccc(-c2cn(CCCOCc3ccccc3)nn2)cc1`, which Potency is on record?
The Potency was inconclusive [activator, single point].

`O=C(O)c1c2c(nc3ccccc13)CCCCC2` was tested. Which Potency did it give?
Its Potency is “inactive”.

`Cc1cccn2c(=O)c3cc(C(=O)NCc4ccc(F)cc4)c(=N)n(CC4CCCO4)c3nc12` (stereo unspecified) was tested. Which Potency did it give?
The Potency was inconclusive [activator, single point].

With `CN1CCC(N(C)S(=O)(=O)c2ccc(NC(=O)COc3ccc(Br)cc3Cl)cc2)CC1` as the compound, how does the Potency read?
Its Potency is inconclusive [inhibitor, partial curve].

How did the Potency turn out when `Fc1ccccc1CNc1nc(-c2cccnc2)nc2ccccc12` was run?
Its Potency is inconclusive [inhibitor, partial curve].

For `CCCCN(C)CCNC(=O)c1cc2c(-c3ccccc3F)nn(C)c2s1`, which Potency is on record?
Its Potency is inconclusive [inhibitor, single point].

For `COc1cc2ccccc2cc1C(=O)OCC(=O)N(C)c1c(N)n(Cc2ccccc2)c(=O)[nH]c1=O`, which Potency is on record?
Its Potency is inconclusive [activator, single point].

How did the Potency turn out when `CCOCCCn1c(SCC(=O)Nc2ccccc2)nc2ccccc2c1=O` was run?
Its Potency is inconclusive [activator, single point].

Which Potency does the source give for `Cc1cc(C)cc(N2CC(C)(C)C2=O)c1` here?
Its Potency is inconclusive [inhibitor, single point].

`O=C(Oc1ccc2c(=O)c(Oc3ccc4ccccc4c3)coc2c1)c1cccnc1` was tested. Which Potency did it give?
Its Potency is “inactive”.

For `C=C(C)n1c(=O)n(Cc2ccccc2C)c2ccccc21`, which Potency is on record?
The Potency was inconclusive [activator, partial curve].

How did the Potency turn out when `Cc1ccc(C)c(-n2c(-c3ccc4c(c3)OCO4)n[nH]c2=S)c1` was run?
Its Potency is “inactive”.

Which Potency does the source give for `Cc1cccc(-c2nnc(-c3ccc(N)cc3)o2)c1` here?
The Potency was “inactive”.

For `COCCN=C1NN=C(c2ccc(C)c([N+](=O)[O-])c2)CS1`, which Potency is on record?
The Potency was “inactive”.

How did the Potency turn out when `COCCNC(=O)/C(C#N)=C/c1c(N2CCN(c3ccccc3)CC2)nc2ccccn2c1=O` was run?
Its Potency is inconclusive [activator, partial curve].

Which Potency does the source give for `Cc1ccc(NC(=O)c2ccccc2OCC(=O)Nc2cccc(Cl)c2C)nc1` here?
The Potency was inconclusive [activator, partial curve].

`CC(=O)N1CCN(c2nc(-c3cccs3)nc3ccccc23)CC1` was tested. Which Potency did it give?
Its Potency is inconclusive [inhibitor, single point].

`CCN(CC)CCNC(=O)c1ccc(NC(=O)c2cn(-c3ccccc3)nc2-c2cccs2)cc1` was tested. Which Potency did it give?
The Potency was inconclusive [inhibitor, single point].

How did the Potency turn out when `CCCOc1ccc2cc(-c3ccccn3)c(=O)oc2c1` was run?
The Potency was inconclusive [activator, partial curve].

How did the Potency turn out when `O=C1CNC(=S)N1c1nc(-c2ccccc2)cs1` was run?
The Potency was “inactive”.

For `COC(=O)c1ccc(C#CC(NP(=O)(c2ccccc2)c2ccccc2)c2ccccc2)cc1` (stereo unspecified), which Potency is on record?
The Potency was inconclusive [activator, full curve].

Which Potency does the source give for `OC[C@@H]1[C@@H](c2ccc(Cl)cc2)C(c2ccccc2)=NN1c1ccccc1` here?
The Potency was inconclusive [activator, partial curve].

With `Cc1cc(C)n(C(C[N+](=O)[O-])c2ccc(Cl)cc2)n1` (stereo unspecified) as the compound, how does the Potency read?
The Potency was “inactive”.

With `CC(=O)C(N=Nc1ccccc1)(Sc1nnc(-c2ccccc2)n1-c1ccccc1)C(=O)Nc1ccccc1` (stereo unspecified) as the compound, how does the Potency read?
The Potency was inconclusive [activator, partial curve].

How did the Potency turn out when `Cc1cc(N2CCOCC2)nc2ccc(NC(=S)NCc3ccc4c(c3)OCO4)cc12` was run?
Its Potency is inconclusive [inhibitor, single point].

How did the Potency turn out when `CC(Cc1cccc(C(F)(F)F)c1)NCCOC(=O)c1ccccc1` (stereo unspecified) was run?
Its Potency is inconclusive [inhibitor, partial curve, poor fit].

`Clc1ccc(Cl)c(OCCCCNCc2ccccc2)c1` was tested. Which Potency did it give?
Its Potency is inconclusive [inhibitor, partial curve].

How did the Potency turn out when `CCOCCCN(C)C1CCN(C(=O)c2oc3ccccc3c2NC(=O)c2ccc(F)cc2)CC1` was run?
Its Potency is inconclusive [inhibitor, single point].

Which Potency does the source give for `O=C(NNC(=O)C1CCCCC1)C(=O)NC1CCCCC1` here?
Its Potency is inconclusive [activator, partial curve, poor fit].

`COc1cc(/C=C/C(=O)NCCN2CCOCC2)cc(OC)c1OC` was tested. Which Potency did it give?
The Potency was inconclusive [inhibitor, single point].

With `COC(=O)C1=CN(Cc2ccccc2)C=C(C(=O)OC)C1c1cc(F)ccc1F` as the compound, how does the Potency read?
The Potency was inconclusive [activator, partial curve].

How did the Potency turn out when `C=CCC(Nc1ccccc1)C12C=CC(O1)C(C(=O)OC)=C2C(=O)OC` (stereo unspecified) was run?
The Potency was “inactive”.

For `O=C(Cn1cnc([N+](=O)[O-])c1)Nc1cc(Oc2ccc(Cl)cc2Cl)cc([N+](=O)[O-])c1`, which Potency is on record?
The Potency was inconclusive [inhibitor, single point].

How did the Potency turn out when `CCCN(CCC)C(=O)CSc1nc2ccccc2c(=O)n1C1CCCC1` was run?
Its Potency is inconclusive [activator, single point].

How did the Potency turn out when `O=C(c1ccc(CSc2ccc(Cl)cc2)cc1)N1CCCC1` was run?
The Potency was inconclusive [activator, partial curve].

Which Potency does the source give for `O=C(c1ccco1)N1CCN(C(=O)c2cc3c(s2)-c2ccccc2OC3)CC1` here?
The Potency was inconclusive [activator, single point].

For `CCOc1ccc(S(=O)(=O)NCc2ccc(F)cc2)c2cccnc12`, which Potency is on record?
The Potency was inconclusive [inhibitor, partial curve].

`COCCn1nnnc1CN(Cc1cc2cc(OC)c(OC)cc2[nH]c1=O)C1CCCC1` was tested. Which Potency did it give?
The Potency was inconclusive [activator, full curve].

Which Potency does the source give for `O=c1c(-c2cccs2)nc2cnc(N3CCNCC3)nc2n1-c1ccccc1` here?
The Potency was inconclusive [inhibitor, partial curve].

With `CCSc1nc2c(sc3ccccc32)c(=O)n1C(C)C` as the compound, how does the Potency read?
Its Potency is inconclusive [activator, partial curve].

With `CCOc1ccccc1NC(=O)c1ccccc1-c1nc(-c2ccccc2)no1` as the compound, how does the Potency read?
The Potency was inconclusive [activator, partial curve].

For `Cc1ccc(SCCNC(=O)CN2C(=O)c3ccccc3S2(=O)=O)cc1`, which activity change, negative = inhibition is on record?
Its activity change, negative = inhibition is inconclusive: 32.2% [activator].

For `N#Cc1c(/N=C/c2cc3ccccc3s2)sc2c1CCC2`, which Potency is on record?
The Potency was “inactive”.

With `COc1cccc(NC(=O)OCCN2CCN(Cc3ccccc3)CCC2=O)c1` as the compound, how does the Potency read?
Its Potency is inconclusive [inhibitor, partial curve].

How did the Potency turn out when `CCOc1ccc(C(C)C)cc1S(=O)(=O)Nc1ccc(Cl)cn1` was run?
The Potency was inconclusive [inhibitor, partial curve].

How did the Potency turn out when `CC(=O)Oc1ccc2c(C)c(CC(C)O)c(=O)oc2c1` (stereo unspecified) was run?
Its Potency is inconclusive [activator, partial curve].

How did the Potency turn out when `CC(C)(C)c1cc(C(=O)NNC(=O)Nc2cccc(Cl)c2)n(Cc2ccccc2)n1` was run?
Its Potency is inconclusive [activator, partial curve].

`CC(C)c1ccc(/C=C2\SC(=O)N(CC(=O)NC3CCS(=O)(=O)C3)C2=O)cc1` (stereo unspecified) was tested. Which Potency did it give?
The Potency was inconclusive [inhibitor, single point].

`O=C(N/N=C/c1ccco1)c1cc(-c2cccc(Br)c2)nc2ccccc12` was tested. Which Potency did it give?
The Potency was inconclusive [activator, partial curve].

Which Potency does the source give for `CCNc1ccc(S(=O)(=O)N(C)C)cc1NCC(=O)Nc1c(F)cccc1F` here?
Its Potency is inconclusive [inhibitor, partial curve].

`O=C(COC(=O)c1cc(-c2cccs2)nc2ccccc12)NCc1ccco1` was tested. Which Potency did it give?
The Potency was inconclusive [activator, partial curve].

With `Cc1ccc2sc(N(CCCN(C)C)C(=O)c3ccc(S(=O)(=O)N4CCc5ccccc5C4)cc3)nc2c1C` as the compound, how does the Potency read?
Its Potency is inconclusive [inhibitor, single point].

How did the Potency turn out when `COc1ccc(CNc2ccnc(-c3c(C)noc3C)n2)c(OC)c1` was run?
Its Potency is “inactive”.

For `O=C1NCCCC2c3cc(O)c4ccccc4c3OC12N1CCCCC1` (stereo unspecified), which Potency is on record?
Its Potency is “inactive”.

For `Cc1ccc(N/N=C/c2cccnc2)cc1`, which Potency is on record?
The Potency was “inactive”.

With `Oc1ccc(NC(=S)Nc2ccc(O)cc2)cc1` as the compound, how does the Potency read?
The Potency was inconclusive [inhibitor, partial curve].

For `CCCCOC(=O)CCNc1n[nH]c(=O)[nH]c1=O`, which Potency is on record?
Its Potency is inconclusive [inhibitor, single point].

How did the Potency turn out when `COc1ccccc1CNC(=O)c1ccc(CS(=O)(=O)c2ccccc2OC)o1` was run?
Its Potency is “inactive”.

How did the Potency turn out when `CC1CCN(C(=O)c2ccc(CSc3nc4ccncc4n3Cc3ccc(F)cc3)cc2)CC1` was run?
The Potency was inconclusive [inhibitor, single point].

Which Potency does the source give for `CC(C)(C)[C@H]1C=C(C(=O)N2CCN(Cc3ccccc3)CC2)O[C@@H](OCc2ccc(CO)cc2)C1` here?
Its Potency is inconclusive [activator, partial curve].

With `O=c1c(Cc2ccccc2)c(O)nc2n1CCS2` as the compound, how does the activity change, negative = inhibition read?
The activity change, negative = inhibition was inactive: 5.05% [at 12.8 µM].

`NNCCc1ccccc1` was tested. Which Potency did it give?
The Potency was inconclusive [inhibitor, partial curve].

For `O=C(Nc1ccccc1)C1=C[C@H](c2ccc3c(c2)OCO3)C[C@H](OCc2ccc(CO)cc2)O1`, which Potency is on record?
Its Potency is inconclusive [activator, partial curve].

For `CN1CCN(CC(=O)N2CCn3c4c(c5cc(C6CCCCC6)ccc53)CCCC42)CC1` (stereo unspecified), which Potency is on record?
Its Potency is inconclusive [inhibitor, partial curve].

With `CCC(=O)c1ccc(OCC(O)CN(CCc2ccccc2)Cc2ccccc2)cc1` (stereo unspecified) as the compound, how does the Potency read?
The Potency was inconclusive [inhibitor, full curve, poor fit].
